Reference: the supplement of paper PMC10338343
± gives the standard deviation. Over roughly 6,600 sequences, “pre-steady-state target cleavage rate” has its median near 0.07; the highest 2% begin near 0.72. This is a selection; strong and weak results do not stand in their true shares.

System: MIWI (PIWIL1) piRISC loaded with Kctd7 piRNA (30 nt)
Experiment: pre-steady-state target cleavage rate (min^-1); MIWI and MILI are mouse PIWI proteins and EfPiwi is from a freshwater sponge; tags in brackets are library labels; higher = faster piRNA-guided slicing of the target
Details: guide: Kctd7 piRNA 5'p-UGUUAAUCUCUCAGAGAAGGUGACAGUGAU; auxiliary factor: 500 nM mouse GTSF1
Method: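 Cleave-'n-Seq: a library of target RNAs (target site embedded in constant flanks, ACAGCATTCCGCGTTAGTGATATCCG... 5' flank; DNA-blocked outside the site) at 0.1 nM was incubated with 1 nM active mouse MILI or MIWI piRISC (synthetic 5'-monophosphorylated piRNA guide) with or without 500 nM mouse GTSF1 at 33 °C for 1 min to 16 h. Uncleaved targets were sequenced and normalised to non-target controls, and the pooled three trials were fitted to a burst-and-steady-state model to give the pre-steady-state cleavage rate (min^-1; k3 is constrained to at most 1e-4). Sequence is the target site only; target names encode pairing extent (gX:gY) and contiguous / 1-mismatch / 2-mismatch / bulge geometry. Fits with R² ≤ 0 are excluded.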

Row | Sequence | pre-steady-state target cleavage rate
1 | UAGACUGUCACCUUCACUGAGUGAUUAACA | 0.0205 ± 0.0036
2 | UUCACUCUCACCUUCUCUGAGAGAUUAAGA | 0.0591 ± 0.019
3 | UAGUGUGUCACCUUUCUGAGAGAUUAACA | 0.326 ± 0.028
4 | AUCACUGUGACCUUCUCUGAGAGUUUAACA | 0.46 ± 0.072
5 | UUCAGAGUCACCUUCUCUGAGAGAUUAACA | 0.594 ± 0.045
6 | UUCACUGUCACCUUCUCUGAGAGAUUAAUA | 0.308 ± 0.036
7 | UAGUGACACACGUUCUCUCAGAGAUUAACA | 0.0098 ± 0.0032
8 | UAGACUGUCACCUUCUCAGAGAGAUAUUGA | 0.0061 ± 0.0033
9 | UAGUGACAGAGCUUCUCUGAGAGAUUAACA | 0.0181 ± 0.0033
10 | UAGUCUGUGACCUUCUCUGAGAGAUUAACA | 0.599 ± 0.031
11 | UAGUGACUCACCAUCUCUGACAGAUUAACA | 0.032 ± 0.0056
12 | UUCACUGUCACCUUCUCUGAGAGAUUACCA | 0.332 ± 0.054
13 | UACACUGUCACCUUCUUCUGAGAGAUUAACA | 0.227 ± 0.07
14 | UUCAGUGUCACCUUCUCUGAGAGAUUUACA | 0.223 ± 0.036
15 | UAGUGACACACCUUCUCUGAGAGAUAUAGA | 0.00835 ± 0.0046
16 | UAGUCUGUCACCUUCGCUGAGAGAUUAACA | 0.416 ± 0.035
17 | UAGUGACACACCUUCACUGACAGAUUAACA | 0.107 ± 0.019
18 | UUCACUGUCACCUUCUCAGAGAGAUUUACA | 0.222 ± 0.036
19 | UAGUGUGUGUCCUUCUCUGAGAGAUUAUGA | 0.00712 ± 0.0033
20 | UAGUGAGUCACCUUCUCUGAGACAUUAUCA | 0.0168 ± 0.0064
21 | AUCACUGUCACGAUCUCUGAGAGAUUAUGA | 0.0423 ± 0.014
22 | UAGUGACAGACCUUCUCUGAGAGUAAAACA | 0.00953 ± 0.0037
23 | UAGUGACAGACCUUCUCUUAGAGAUUAACA | 0.0217 ± 0.0053
24 | UAGUCUGUCACCUUUCUGAGAGAUUAACA | 0.354 ± 0.018
25 | UAGUGAGUCUCCUUCUCUGAGAGAUUAUCA | 0.064 ± 0.014

Row | Sequence | pre-steady-state target cleavage rate
26 | UAGUGUGUCACCUUCUCUGAGGAUUAACA | 0.0111 ± 0.0062
27 | UAGUGACUCACCUUCUCUGACAGAUUAACA | 0.393 ± 0.048
28 | UAGUGAGUGACCUUCUCUGACAGAUUAACA | 0.123 ± 0.016
29 | UAGUGAGUACCUUCUCUGAGAGAUUAACA | 0.406 ± 0.024
30 | UACACUGUCACCUUCUCUGAGAGAUAUAACA | 0.322 ± 0.042
31 | AUCAGUGACACCUUCUCUGAGAGAUUAACA | 0.569 ± 0.024
32 | UAGACUGACACCUUCUCUGAGAGAUUAUCA | 0.278 ± 0.042
33 | UUCACUGUCACCUUCUCUGACAGAUUAUGA | 0.00929 ± 0.0039
34 | UUCACUGUCACCUUCUCUGAGAGUUUUACA | 0.559 ± 0.12
35 | UAGUGAGUCACCUUCUCUCUGAGAUUAACA | 0.0164 ± 0.0037
36 | UAGUGUGUCACCUUCUCUGAGUGUUUAACA | 0.0686 ± 0.014
37 | UAGUGACACACCUUGUCUGAGAGAUAAACA | 0.0911 ± 0.022
38 | UAGUGACUCACCUUCUCAGAGAGAUUUACA | 0.0695 ± 0.012
39 | AUCACUGUCACCUUCUCUGAGAGAGUUAACA | 0.651 ± 0.088
40 | UAGUGUGUCACCUAGUCUGAGAGAUUAACA | 0.266 ± 0.023
41 | UUCACUGUCACCUUGUCUGAGAGAUAAACA | 0.3 ± 0.051
42 | AUCACAGACACCUUCUCUGAGAGAUUAACA | 0.713 ± 0.044
43 | UAGACUCUCACCUUCUCUCAGAGAUUAACA | 0.0518 ± 0.0063
44 | UACACUGUCACCUUCUCUGAGAGAUUACACA | 0.185 ± 0.027
45 | AUCACUGUCACCAAGUCUGAGAGAUUAUGA | 0.0155 ± 0.0062
46 | UAGUGACAGUGGAACUCUGAGAGAUAAACA | < 0.0001
47 | UAGACUGUCACCUUGUCUGAGAGAUAUUGA | 0.038 ± 0.014
48 | UAGUGACAGUGGAAGUCUGAAGAUUAACA | < 0.0001
49 | AUGACUGUCACCUUCUCUGAGAGAUAAACA | 0.388 ± 0.037
50 | UAGUGAGUCCACCUUCUCUGAGAGAUUAACA | 0.379 ± 0.037

Row | Sequence | pre-steady-state target cleavage rate
51 | UAGUCUGUCUCCUUCUCUGAGAGAUUUUGA | 0.0109 ± 0.0036
52 | UUCACUGUCACCUUGUCUGAGUGAUUAACA | 0.0394 ± 0.0054
53 | AUCACUGACACCUUCUCUGAGAGUUUAACA | 0.644 ± 0.16
54 | UAGUGUGUCACCUUCUCUCAGAGAUUAAGA | 0.0814 ± 0.021
55 | AUCACUGUCACCUUCUGUGUGAGAUUAACA | 0.101 ± 0.0082
56 | AUCACUGUCACCUUCUCUGAGAGAUUAUCA | 0.407 ± 0.057
57 | UACACUGUCACCUUCACUGAGACAUUAACA | 0.19 ± 0.025
58 | UAGUGUGUGACCAUCUCUGAGAGAUUAACA | 0.416 ± 0.035
59 | UAGACUGUCACCUUCUCUGAGAGGAUUAACA | 0.369 ± 0.036
60 | UAGACUGUCACCUUCUCUGAGUGUUUAACA | 0.00739 ± 0.002
61 | UUCACUGUCACCUUCUGUGAGAGAUUUUGA | 0.113 ± 0.031
62 | UAGUGACUCACCUUCUCUGAGUGAAUAACA | 0.0078 ± 0.0031
63 | UUCACUGUCACCUUCUCUGAGAGAUUUUGA | 0.271 ± 0.069
64 | UAGUGACACACCUUCUCAGACAGAUUAACA | 0.0107 ± 0.004
65 | UAGACUGUCACCUUGUCUCAGAGAUUAACA | 0.0345 ± 0.0054
66 | UACACUGUCACCUUCACUGAGAGAUUAAGA | 0.116 ± 0.027
67 | UAGUGUGUCACCAUCUCUGAGAGAUUAACA | 0.609 ± 0.037
68 | UAGUGAGUCACCUUCUCUGAGAGUAUAUGA | 0.0298 ± 0.012
69 | UUCUGAGUCACCUUCUCUGAGAGAUUAUGA | 0.189 ± 0.037
70 | UACACUGUGACCUUCUCUGAGAGAUAUUGA | 0.0118 ± 0.0059
71 | UAGACUGACACCUUCUCUGAGUGAUUAACA | 0.023 ± 0.0043
72 | UAGACUGUCACCUACUCUGAGAGAUUAUCA | 0.257 ± 0.036
73 | UAGUGUGUCACGAACUCUGAGAGAUUAACA | 0.0752 ± 0.0083
